Measurements published in PubChem BioAssay (Tox21).
“And” between values parts separate entries of the source, which are not always exact repeats. Equal entries are not always repeated. Inconclusive means that the source gave no clear call. Such entries were picked first, then a sample of the others. Potencies of inconclusive entries are doubtful fits and often do not repeat. The source made the active and inactive calls. The call rests on the fitted dose curve; in most records, active means well fitted cell-killing curve with a large enough effect in the repeat runs; inconclusive means weak or mixed curves; inactive means no such curve, though single readings can be large or run the other way.

Assay: qHTS assay for identifying genotoxic compounds that show differential cytotoxicity against isogenic chicken DT40 cell lines with known DNA damage response pathways - Rad54/Ku70 mutant cell line (AID 743015); further: nearly all actives have a fitted effect of over 60% in size
Conditions: DT40 Rad54/Ku70 mutant viability, CellTiter-Glo, 40 h; activity change, negative = cytotoxicity: at 66.8 µM (top of the series)
From the text: National Center for Advancing Translational Sciences [NCATS]
NIH Chemical Genomics Center [NCGC]
U.S. Environmental Protection Agency [EPA]
National Institutes of Environmental Health Sciences [NIEHS]
National Toxicology Program [NTP]
U.S. Food and Drug Administration [FDA]
DNA repair pathways play a critical role in cellular homeostasis by repairing DNA damage induced by endogenous processes and xenobiotics. Isogenic chicken DT40 cell lines deficient in different DNA repair pathways can be used to identify genotoxic compounds and aid in characterizing the nature of the DNA damage induced. Two DNA repair-deficient cell lines with disrupted genes, Rad54/Ku70 or Rev3, were used to screen the Tox21 10K compound library. Possible genotoxicity was based on the presence of a significant increase in cytotoxicity in one or more of the DNA repair-deficient cell lines compared to that observed in the parental DNA repair-proficient cell line. CellTiter Glo viability assay (Promega, Madison, WI) was used to measure cell viability in these cells after compound treatment. This assay includes the data from the Rad54/Ku70 mutant cell line.
Tox21 Assay Protocol Summary:
300 DT40 mutant cells in 5 uL/well were dispensed into white, solid-bottom 1536-well plates using a Multidrop Combi (ThermoFisher Scientific, Waltham, MA) dispenser. After the assay plates were incubated at 37 C/5% CO2 for approximately 0.5 hour, 23 nL of compounds dissolved in DMSO, positive controls or DMSO only was transferred into the assay plate by a pintool work station (Kalypsys, San Diego, CA). The assay plates were incubated at 37 C/5% CO2 for 40 hours. After 5 uL per well of CellTiter-Glo reagent was added into each well of the assay plates, the plates were incubated for 30 min at room temperature and the luminescence intensity of the plates was measured using a ViewLux (PerkinElmer, Shelton, CT) plate reader.
On the % scale 0 is the no-effect control and ±100 the full control effect; potency means the concentration at half of the fitted maximal effect; tags describe the fitted curve by direction and shape.

Compound | activity change, negative = cytotoxicity | Potency
CC(C)c1cc2c(cc1S(=O)(=O)O)[C@@]1(C)CCC[C@@](C)(C(=O)O)[C@@H]1CC2 | inactive: 11% | 
COc1cc(C=O)ccc1OC(=O)C(C)C |  | inconclusive: 68.6 µM [cytotoxic, partial curve, poor fit]
CCCCCOC(C)=O |  | inconclusive: 68.6 µM [cytotoxic, single point]
O=C(NCC1CCCCN1)c1cc(OCC(F)(F)F)ccc1OCC(F)(F)F (stereo not given) |  | inconclusive: 33.5 µM [cytotoxic, single point] and inconclusive: 60 µM [cytotoxic, single point]
C[N+]1(CC2COC(c3ccccc3)(C3CCCCC3)O2)CCCCC1 (stereo not given) |  | active: 5.31 µM
CC1CC(O)CC(C)(C)C1 (stereo not given) |  | inconclusive: 68.6 µM [cytotoxic, single point]
CC(C)=CC=O | inactive: 7.83% [at 95.1 µM] | 
C[C@]12CCC(=O)C=C1CC[C@H]1[C@@H]3CC[C@](O)(C(=O)CO)[C@@]3(C)C[C@H](O)[C@@]12F |  | inconclusive: 23.7 µM [cytotoxic, partial curve]
O=C(c1ccccc1)C1(O)CCCCC1 | inconclusive: -32% [cytotoxic] | 
NC(N)=N/N=C/c1c(Cl)cccc1Cl |  | active: 21.1 µM
O=C1NC(=O)C2CC=CCC12 (stereo not given) | inactive: 0.183% | 
CCCC[P+](CCCC)(CCCC)CCCC |  | inconclusive: 1.54 µM [cytotoxic, full curve, poor fit]
OCc1cc(C(O)CNCCCCCCOCCCCc2ccccc2)ccc1O (stereo not given) |  | active: 5.31 µM and active: 3.35 µM
C=CCOC(=O)CCCCCC | inactive: 0.836% | 
CCCCCCCCCCCCCC(=O)O |  | inactive and inconclusive: 77 µM [cytotoxic, partial curve, poor fit]
O=C1CCN(c2ccccc2)N1 |  | inconclusive: 68.8 µM [cytotoxic, single point]
CS(C)=O |  | inconclusive: 68.6 µM [cytotoxic, single point]
O=C(CO)[C@@H](O)[C@H](O)[C@H](O)CO |  | inactive
COS(C)(=O)=O |  | inactive
OC[C@H](Cc1cccc(O)c1)[C@H](CO)Cc1cccc(O)c1 |  | inconclusive: 70.3 µM [cytotoxic]

Compound | activity change, negative = cytotoxicity | Potency
CCCCCCCCS(=O)(=O)Cl | inactive: 9.57% [at 95.1 µM] | 
Cc1ccc(N)c([N+](=O)[O-])c1 |  | inactive
CCN(CC)CCNC(=O)c1cc(Br)c(N)cc1OC | inactive: 4.69% | 
CN(C)CCCNCCCN |  | inconclusive: 68.3 µM [cytotoxic, partial curve, poor fit]
O=C(c1ccc(O)cc1)c1ccc(O)c(O)c1O |  | inconclusive: 68.9 µM [cytotoxic]
CCc1cc(C2=C(C(=O)O)N(c3ccccc3C(F)(F)F)S(=O)(=O)c3ccccc32)cc2c1OCO2 |  | inconclusive: 67.8 µM [cytotoxic, single point]
O=C(Nc1ccc2c(c1)Cc1ccccc1-2)C(F)(F)F |  | active: 54.5 µM
OCCOc1cccc(OCCO)c1 |  | inconclusive: 68.6 µM [cytotoxic, single point]
F[B-](F)(F)F |  | inconclusive: 69.6 µM [cytotoxic, single point]
CC1=CC[C@H](C(C)C)C=C1 |  | active: 61.1 µM
CNCC[C@@H](Oc1ccccc1C)c1ccccc1 |  | active: 29.8 µM
O=C(O)c1cn(-c2ccc(F)cc2)c2cc(N3CCNCC3)c(F)cc2c1=O |  | inconclusive: 33.5 µM [cytotoxic, partial curve, poor fit]
Cc1cc(C)c(C)c(O)c1 | inactive: 3.12% | 
Cc1ccccc1C(=O)Nc1ccc(C(=O)N2CCCC(O)c3cc(Cl)ccc32)c(C)c1 (stereo not given) |  | inconclusive: 33.5 µM [cytotoxic, single point]
CCCCCCCCCCCCOCCOS(=O)(=O)O |  | inconclusive: 54.5 µM [cytotoxic, single point]
CN1CCN(C2=Nc3ccccc3Oc3ccc(Cl)cc32)CC1 |  | inconclusive: 14.3 µM [cytotoxic, single point]
CN1CCC(=C2c3ccccc3CC(=O)c3sccc32)CC1 |  | inconclusive: 33.5 µM [cytotoxic, single point]
C=C(C)C(=O)OCCOP(=O)(O)O | inactive: -8.11% [at 95.1 µM] | 
CC(Cl)COP(=O)(OCC(C)Cl)OCC(C)Cl (stereo not given) |  | inconclusive: 60.8 µM [cytotoxic, single point]
CC(C)c1ccccc1C(C)C |  | inconclusive: 68.7 µM [cytotoxic, single point]
